A lower IC50 marks a more sensitive line; a fit beyond the top or the lowest dose is shown as a bound at that dose. For AUC the same curve is integrated over the 256-fold range of doses and scaled to a fraction; values near 1 show little effect. For part of these data: The top dose, if marked as inferred, was calculated from the reported fits.
Columns and labels:
Assay in all cases: Viability of human cancer cell lines after 72 h of drug (GDSC screen)
[1] = compound: CCc1c2c(nc3ccc(O)cc13)-c1cc3c(c(=O)n1C2)COC(=O)[C@]3(O)CC [SN-38]; details: top dose 0.05 µM; top dose inferred
Protocol: (§1)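 Human cancer cell lines in 384-well plates, medium with 10% serum, drug for 72 h over a 256-fold dose range (nine 2-fold or five 4-fold steps up to the top dose). Adherent lines were fixed and stained with the nucleic acid dye Syto60, suspension lines read with resazurin; signal relative to control wells, capped at 0 and 100%. One two-parameter sigmoid per drug and line, fitted in a mixed model over all curves with the slope shared within a line.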

[2] = compound: O=C(CCCCCCC(=O)Nc1ccccc1)NO [Vorinostat]; details: top dose 10 µM
Protocol: as §1

[3] = compound: CN(Cc1cnc2nc(N)nc(N)c2n1)c1ccc(C(=O)N[C@@H](CCC(=O)O)C(=O)O)cc1 [Methotrexate]; details: top dose 0.2 µM
Protocol: as §1

[4] = compound: CC(C)(C)c1nc(-c2cccc(NS(=O)(=O)c3c(F)cccc3F)c2F)c(-c2ccnc(N)n2)s1 [Dabrafenib]; details: top dose 10 µM
Protocol: as §1

[5] = compound: CNC(=O)c1ccccc1Sc1ccc2c(/C=C/c3ccccn3)n[nH]c2c1 [Axitinib]; details: top dose 2 µM
Protocol: as §1

| Cell Line | AUC [1] | IC50 [1] [nM] | AUC [2] | IC50 [2] [nM] | AUC [3] | IC50 [3] [nM] | AUC [4] | IC50 [4] [nM] | AUC [5] | IC50 [5] [nM] |
| --- | --- | --- | --- | --- | --- | --- | --- | --- | --- | --- |
| SW684 (fibrosarcoma, adherent) | 0.903 | > 50 | 0.85 | > 10000 | 0.968 | > 200 | 0.975 | > 10000 | 0.983 | > 2000 |
| CTB-1 (B-cell lymphoma, suspension) | 0.756 | 23 | 0.494 | 598 | 0.503 | 12.8 | 0.95 | > 10000 | 0.92 | > 2000 |
| VMRC-LCD (lung adenocarcinoma, adherent) | 0.891 | 41.5 | 0.547 | 822 | 0.991 | > 200 | 0.979 | > 10000 | 0.876 | 1440 |
| MS751 (cervix, adherent) | 0.558 | 4.45 | 0.653 | 1600 | 0.99 | > 200 | 0.989 | > 10000 | 0.951 | > 2000 |
| PANC-03-27 (pancreas, adherent) | 0.595 | 5.59 | 0.826 | 5540 | 0.974 | > 200 | 0.975 | > 10000 | 0.988 | > 2000 |
| huH-1 (liver, adherent) | 0.743 | 18.7 | 0.627 | 1520 | 0.96 | > 200 | 0.979 | > 10000 | 0.92 | > 2000 |
| LC4-1 (lymphoblastic leukaemia, suspension) | 0.57 | 4.95 | 0.804 | 5670 | 0.985 | > 200 | 0.945 | > 10000 | 0.973 | > 2000 |
| HCC2218 (breast, suspension) | 0.913 | > 50 | 0.673 | 2160 | 0.942 | > 200 | 0.981 | > 10000 | 0.977 | > 2000 |
| HCC-15 (lung squamous cell carcinoma, adherent) | 0.886 | > 50 | 0.663 | 2030 | 0.974 | > 200 | 0.918 | > 10000 | 0.927 | > 2000 |
| SK-N-FI (neuroblastoma, adherent) | 0.868 | 45.3 | 0.787 | 4320 | 0.984 | > 200 | 0.939 | > 10000 | 0.904 | > 2000 |
| COR-L95 (small cell lung carcinoma, adherent) | 0.94 | > 50 | 0.885 | > 10000 | 0.981 | > 200 | 0.984 | > 10000 | 0.985 | > 2000 |
| SK-PN-DW (Ewing sarcoma, adherent) | 0.46 | 2.41 | 0.579 | 1040 | 0.971 | > 200 | 0.962 | > 10000 | 0.877 | > 2000 |
| OMC-1 (cervix, adherent) | 0.881 | > 50 | 0.869 | 9980 | 0.988 | > 200 | 0.98 | > 10000 | 0.961 | > 2000 |
| NKM-1 (acute myeloid leukaemia, suspension) | 0.382 | 1.46 | 0.38 | 289 | 0.691 | 43.7 | 0.762 | 3680 | 0.809 | 1080 |
| DBTRG-05MG (glioma, adherent) | 0.545 | 4.24 | 0.828 | 7680 | 0.77 | 88.8 | 0.36 | 240 | 0.95 | > 2000 |
| SJSA-1 (bone, adherent) | 0.836 | 39.4 | 0.824 | 7000 | 0.984 | > 200 | 0.943 | > 10000 | 0.975 | > 2000 |
| LN-18 (glioma, adherent) | 0.842 | 25.6 | 0.787 | 3480 | 0.907 | 182 | 0.992 | > 10000 | 0.978 | > 2000 |
| EW-24 (Ewing sarcoma, semi-adherent) | 0.824 | 25.1 | 0.788 | 3830 | 0.947 | > 200 | 0.981 | > 10000 | 0.97 | > 2000 |
| NCI-H1770 (non-small cell lung carcinoma, suspension) | 0.943 | > 50 | 0.632 | 1370 | 0.992 | > 200 | 0.991 | > 10000 | 0.986 | > 2000 |
| OV-56 (ovary, adherent) | 0.724 | 13.1 | 0.717 | 2490 | 0.97 | > 200 | 0.976 | > 10000 | 0.95 | > 2000 |
| JVM-3 (lymphoid neoplasm, suspension) | 0.384 | 1.49 | 0.436 | 416 | 0.553 | 17.4 | 0.754 | 3410 | 0.822 | 1190 |
| TE-15 (oesophagus, suspension) | 0.887 | > 50 | 0.68 | 2130 | 0.963 | > 200 | 0.965 | > 10000 | 0.983 | > 2000 |
| NCI-H28 (mesothelioma, adherent) | 0.807 | 36.2 | 0.812 | 7610 | 0.881 | > 200 | 0.84 | > 10000 | 0.914 | > 2000 |
| ESS-1 (endometrium, adherent) | 0.371 | 1.43 | 0.806 | 4480 | 0.955 | > 200 | 0.988 | > 10000 | 0.921 | > 2000 |
| RF-48 (stomach, adherent) | 0.785 | 24.3 | 0.776 | 4490 | 0.918 | > 200 | 0.958 | > 10000 | 0.984 | > 2000 |
| HCC-44 (lung adenocarcinoma, adherent) | 0.659 | 8.53 | 0.729 | 2750 | 0.959 | > 200 | 0.978 | > 10000 | 0.984 | > 2000 |

| Cell Line | AUC [1] | IC50 [1] [nM] | AUC [2] | IC50 [2] [nM] | AUC [3] | IC50 [3] [nM] | AUC [4] | IC50 [4] [nM] | AUC [5] | IC50 [5] [nM] |
| --- | --- | --- | --- | --- | --- | --- | --- | --- | --- | --- |
| U-698-M (B-cell leukaemia, suspension) | 0.806 | 25.4 | 0.592 | 1110 | 0.443 | 8.73 | 0.978 | > 10000 | 0.953 | > 2000 |
| Hs766T (pancreas, adherent) | 0.955 | > 50 | 0.723 | 3340 | 0.97 | > 200 | 0.87 | > 10000 | 0.941 | > 2000 |
| RVH-421 (melanoma, adherent) | 0.866 | > 50 | 0.825 | 9260 | 0.979 | > 200 | 0.446 | 423 | 0.968 | > 2000 |
| Becker (glioma, adherent) | 0.542 | 4.12 | 0.791 | 5140 | 0.972 | > 200 | 0.981 | > 10000 | 0.932 | > 2000 |
| MDA-MB-415 (breast, adherent) | 0.842 | > 50 | 0.832 | 9690 | 0.98 | > 200 | 0.97 | > 10000 | 0.937 | > 2000 |
| SH-4 (melanoma, adherent) | 0.71 | 17.3 | 0.854 | > 10000 | 0.963 | > 200 | 0.111 | < 39.1 | 0.959 | > 2000 |
| NCI-H1944 (lung adenocarcinoma, adherent) | 0.72 | 13.8 | 0.802 | 5310 | 0.985 | > 200 | 0.98 | > 10000 | 0.956 | > 2000 |
| P32-ISH (Burkitt lymphoma, suspension) | 0.321 | 1.14 | 0.592 | 1050 | 0.922 | 174 | 0.728 | 2270 | 0.898 | 1400 |
| HuP-T3 (pancreas, adherent) | 0.825 | 39.2 | 0.664 | 1980 | 0.982 | > 200 | 0.974 | > 10000 | 0.955 | > 2000 |
| JURL-MK1 (chronic myeloid leukaemia, suspension) | 0.646 | 7.89 | 0.598 | 1160 | 0.757 | 68.8 | 0.801 | 4840 | 0.457 | 95.7 |
| IHH-4 (thyroid, semi-adherent) | 0.491 | 2.97 | 0.658 | 1560 | 0.981 | > 200 | 0.118 | 55.6 | 0.919 | > 2000 |
| KYSE-150 (oesophagus, adherent) | 0.923 | > 50 | 0.911 | > 10000 | 0.807 | 97.2 | 0.988 | > 10000 | 0.988 | > 2000 |
| CCK-81 (large intestine, adherent) | 0.9 | > 50 | 0.755 | 3200 | 0.949 | > 200 | 0.986 | > 10000 | 0.969 | > 2000 |
| JJN-3 (haematopoietic neoplasm, suspension) | 0.884 | 37.2 | 0.519 | 698 | 0.963 | > 200 | 0.908 | 9440 | 0.947 | > 2000 |
| OCI-LY-19 (B-cell lymphoma, suspension) | 0.539 | 3.95 | 0.673 | 1820 | 0.81 | 95.2 | 0.586 | 1050 | 0.925 | > 2000 |
| ES7 (Ewing sarcoma, adherent) | 0.227 | 0.487 | 0.662 | 1790 | 0.847 | 153 | 0.81 | 5440 | 0.822 | 1210 |
| H2461 (mesothelioma, adherent) | 0.747 | 19.4 | 0.922 | > 10000 | 0.938 | > 200 | 0.823 | 7920 | 0.98 | > 2000 |
| HCC202 (breast, adherent) | 0.913 | > 50 | 0.751 | 4530 | 0.981 | > 200 | 0.973 | > 10000 | 0.892 | > 2000 |
| SK-GT-4 (oesophagus, adherent) | 0.949 | > 50 | 0.699 | 2620 | 0.974 | > 200 | 0.941 | > 10000 | 0.938 | > 2000 |
| HMV-II (melanoma, adherent) | 0.777 | 24.8 | 0.783 | 5230 | 0.932 | > 200 | 0.739 | 3560 | 0.981 | > 2000 |
| KYSE-510 (oesophagus, adherent) | 0.632 | 6.74 | 0.799 | 3880 | 0.77 | 64 | 0.988 | > 10000 | 0.97 | > 2000 |
| CPC-N (small cell lung carcinoma, suspension) | 0.932 | > 50 | 0.541 | 816 | 0.58 | 21.2 | 0.956 | > 10000 | 0.939 | > 2000 |
| QGP-1 (pancreas, adherent) | 0.966 | > 50 | 0.94 | > 10000 | 0.967 | > 200 | 0.974 | > 10000 | 0.975 | > 2000 |
| U-118-MG (glioma, adherent) | 0.563 | 4.77 | 0.886 | > 10000 | 0.97 | > 200 | 0.945 | > 10000 | 0.955 | > 2000 |
| DEL (lymphoid neoplasm, suspension) | 0.477 | 2.74 | 0.608 | 1160 | 0.665 | 32.1 | 0.954 | > 10000 | 0.988 | > 2000 |

From the supplement of paper PMC4967469
